# From the BET-seq Pho4 binding data (Le et al. 2018)
# This is one part of the list. Values were computed here from the reads of four pooled replicates and scatter widely.
# Biological target: T1, Pho4 (S. cerevisiae) (UniProt P07270)
# T1 sequence: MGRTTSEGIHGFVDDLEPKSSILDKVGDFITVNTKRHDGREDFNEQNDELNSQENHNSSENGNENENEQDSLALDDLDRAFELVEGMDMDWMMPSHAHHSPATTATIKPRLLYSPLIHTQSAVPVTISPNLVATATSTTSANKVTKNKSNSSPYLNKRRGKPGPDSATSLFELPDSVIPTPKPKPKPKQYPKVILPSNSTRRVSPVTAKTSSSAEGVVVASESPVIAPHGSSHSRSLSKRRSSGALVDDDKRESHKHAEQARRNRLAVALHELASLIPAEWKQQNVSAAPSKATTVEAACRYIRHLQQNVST
# Test: relative binding free energy (BET-seq); higher = weaker binding
# Details: reference: library average
row,Sequence,relative binding free energy [kcal/mol]
1,CTTTGCACGTGGTCAT,-0.01
2,GGGTACACGTGTTAAA,0.19
3,AGTGTCACGTGGCGAT,-0.07
4,TGTTTCACGTGCTAGA,0.19
5,GGTGGCACGTGGATGA,-0.04
6,CGGGGCACGTGCAAGG,-0.03
7,GATAGCACGTGTTGTA,-0.02
8,GGTTTCACGTGGTCTT,0.16
9,GGGGACACGTGGGATT,0.08
10,TATTGCACGTGATTCT,-0.01
11,GCTGTCACGTGTGTTT,0.21
12,GGGGTCACGTGCTTGG,0.17
13,GTTTTCACGTGGACTT,0.27
14,CTGGACACGTGAGAGG,0.23
15,CTGGTCACGTGGCATT,0.03
16,TGGGGCACGTGTGGTC,0.02
17,TAATACACGTGGTCGG,0.01
18,TCGTTCACGTGTAGGC,0.29
19,GGGGACACGTGACGTT,0.04
20,GGTTACACGTGTCGAT,0.29

row,Sequence,relative binding free energy [kcal/mol]
1,TTGTCCACGTGTGGGG,0.14
2,TGGTTCACGTGGACTG,0.35
3,AGAAACACGTGGGGTG,-0.05
4,AGTGACACGTGTCTGG,-0.01
5,GCGTTCACGTGTGAAG,0.48
6,GCGCGCACGTGTGTAG,0.04
7,AGGGTCACGTGGCTGC,0.02
8,TCGAGCACGTGTGTAA,0.06
9,TTTAACACGTGCGTGG,-0.06
10,GTTTTCACGTGGTTTA,0.32
11,GTCTACACGTGGAGAG,0.24
12,AGTGGCACGTGAGTAG,0.18
13,AAAGCCACGTGTGTGG,-0.05
14,GATTGCACGTGGCAGG,-0.12
15,TGGGTCACGTGCGTCT,0.11
16,GCGGGCACGTGAGCGT,0.15
17,CGTGGCACGTGTGTGG,-0.09
18,TGGCTCACGTGGGAAT,0.21
19,AATTACACGTGTGATG,0.08
20,ATCAGCACGTGTTTTT,-0.05

row,Sequence,relative binding free energy [kcal/mol]
1,TACGACACGTGAGGTT,0.19
2,CATGGCACGTGACGTG,0.07
3,GGTGGCACGTGCTACG,-0.17
4,TACGGCACGTGAGGGG,0.2
5,GGGGGCACGTGCTGAT,-0.2
6,GGCAGCACGTGGTAGT,-0.14
7,ACTTTCACGTGTGGGC,0.16
8,ACTTACACGTGATTGT,0.24
9,GTTTGCACGTGCGAGT,0.18
10,TTGCGCACGTGTAGGG,0.01
11,CATTACACGTGTTAGG,0.15
12,TGGAGCACGTGTATAG,-0.06
13,GGATACACGTGATATG,0.11
14,AGTTACACGTGTAGCT,0.13
15,TGTGTCACGTGTTAGT,0.08
16,GTCAACACGTGTTTTG,0.02
17,GTGGCCACGTGGCTGG,-0.14
18,TGTGGCACGTGGTGTC,-0.29
